This passage reports Potency results from PubChem BioAssay AID360 (National Center for Advancing Translational Sciences (NCATS), 2006).

Among all 48,000 compounds or so, about 550 (1.1%) were called active. Not shown: some 4% with an inconclusive outcome. No stated cut-off is given here; in the data, active means potency below about 15 µM; inconclusive means mostly about 16 µM to 33 µM; inactive means weaker than that. Some of the results follow. Where only a bound is given, the exact number is not on record here.
Potency means the concentration at half of the fitted maximal effect.

Sequence of UniProt P04062 (P04062 whole entry, looked up): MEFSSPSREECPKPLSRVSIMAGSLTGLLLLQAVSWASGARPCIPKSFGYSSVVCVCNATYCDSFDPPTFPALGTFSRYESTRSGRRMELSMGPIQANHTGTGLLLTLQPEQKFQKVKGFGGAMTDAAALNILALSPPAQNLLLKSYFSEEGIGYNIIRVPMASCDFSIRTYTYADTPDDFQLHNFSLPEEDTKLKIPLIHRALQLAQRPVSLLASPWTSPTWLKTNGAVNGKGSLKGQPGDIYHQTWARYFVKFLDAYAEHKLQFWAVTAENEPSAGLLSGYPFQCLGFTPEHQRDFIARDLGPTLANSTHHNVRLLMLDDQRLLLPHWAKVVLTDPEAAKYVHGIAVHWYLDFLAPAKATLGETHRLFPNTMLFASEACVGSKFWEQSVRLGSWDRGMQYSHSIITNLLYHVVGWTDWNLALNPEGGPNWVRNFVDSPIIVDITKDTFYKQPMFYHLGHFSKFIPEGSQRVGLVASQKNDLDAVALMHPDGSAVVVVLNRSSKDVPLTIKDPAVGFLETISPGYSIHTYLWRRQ

This test addresses Lysosomal acid glucosylceramidase (Homo sapiens) (UniProt P04062). Kind of test: Glucocerebrosidase.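 Further: the screen sought inhibitors.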 Particulars: purified enzyme, resorufin glucoside fluorescence (screen aimed at inhibitors), 20 min. A digest of the protocol:
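Normal human glucocerebrosidase (0.2 nM final) was assayed with resorufin β-D-glucopyranoside (30 uM final) in 50mM citric acid/KH2PO4, 10mM sodium taurocholate, 0.01% tween-20, pH 5.9. Compounds were titrated; fluorescence (Ex 548, Em 600) read after 20 min at RT.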
As to `O=C(CCS(=O)(=O)c1cccc2nonc12)N1CCN(c2ccc(F)cc2)CC1`, the Potency was inactive: > 76.9 µM.

Regarding `CCOC(=O)/C=C(\C)Sc1cc(=O)oc2ccccc12`, the Potency is inactive: > 76.9 µM.

Regarding `CCCCCNC(=O)c1ccc2c(=O)[nH]c3c(C(=O)NCC4CCCO4)sc(=S)n3c2c1` (stereo not given), the Potency was inactive: > 76.9 µM.

On to `Cc1cccn2c(=O)c3cc(C#N)c(=NC(=O)c4ccncc4)n(CCCOC(C)C)c3nc12`, for which the Potency is inactive: > 76.9 µM.

With `CCOC(=O)N1CCN(C(=O)C2CC(=O)N(c3ccc(OC)cc3)C2c2ccc(OC)cc2)CC1` (stereo not given), the Potency was inactive: > 76.9 µM.

For `COC(=O)c1sccc1NC(=O)c1ccncc1`, the Potency was inactive: > 76.9 µM.

As for `O=C(O)C1CCCCC1C(=O)Nc1nc(-c2cccs2)cs1` (stereo not given), the Potency was inactive: > 76.9 µM.

As for `O=C(NS(=O)(=O)c1ccc(NC(=O)C2CCCO2)cc1)c1ccccc1` (stereo not given), the Potency was inactive: > 76.9 µM.

For the compound `Nn1cnnc1SCC(=O)Nc1ccc(C2CCCCC2)cc1`, the Potency is inactive: > 76.9 µM.

For the compound `C=CCNC(=O)COc1ccc(S(=O)(=O)NC2CCCCC2)cc1`, the Potency was inactive: > 76.9 µM.

In the case of `COc1cccc(CNC(=O)C2CCN(S(=O)(=O)c3ccccc3)CC2)c1`, the Potency is inactive: > 76.9 µM.

`Cc1c(C)n(CC(O)CN2CCOCC2)c2ccccc12` (stereo not given): the Potency is inactive: > 76.9 µM.

`Cc1ccc(NC(=O)c2cc(S(=O)(=O)N3CCC4(CC3)OCCO4)ccc2F)cc1`: the Potency is inactive: > 76.9 µM.

Turning to `CCOC(=O)c1ccc(NC(=O)CN(C)S(=O)(=O)c2ccc(OC)cc2)cc1`, the Potency was inactive: > 76.9 µM.

Regarding `CC(=O)Nc1c(O)[nH]c2ccccc12`, the Potency was inactive: > 76.9 µM.

As for `CCOc1ccc(OCC)c(NC(=O)C2CCCN(S(=O)(=O)c3cccs3)C2)c1` (stereo not given), the Potency was inactive: > 76.9 µM.

In the case of `CCOc1ccc(S(=O)(=O)Nc2cccnc2)cc1`, the Potency is inactive: > 76.9 µM.

In the case of `CC(C)NC(=O)Cn1cc(C#N)c2cc(Br)ccc21`, the Potency was inactive: > 76.9 µM.

For `COC(=O)c1c(C)oc2ccc(OC(=O)N3CCOCC3)cc12`, the Potency was inactive: > 76.9 µM.

Consider `CCN(CC)c1nc(Nc2ccc(Cl)cc2)nc(OCC#N)n1`, for which the Potency was inactive: > 76.9 µM.

Regarding `Cc1ccc(-c2nc3ccccc3c(=O)n2CCCN2CCOCC2)cc1`, the Potency was inactive: > 76.9 µM.

For `O=C(Nc1cccc(C(F)(F)F)c1)c1ccco1`, the Potency was inactive: > 76.9 µM.

Regarding `COc1ccccc1NC(=O)CSc1nnc(Cn2nnc(-c3ccccc3)n2)n1-c1ccccc1`, the Potency was inactive: > 76.9 µM.

Turning to `COc1ccc(C(=O)Oc2c(C)occc2=O)cc1OC`, the Potency is inactive: > 76.9 µM.

Regarding `CCOc1ccccc1C(=O)NCc1ccc2c(c1)OCO2`, the Potency was inactive: > 76.9 µM.
